Measurements: the antibiotic and cytotoxicity screens of Wong et al. (2023)
This is one part of the list.

Columns and labels:
HSkMC = human skeletal muscle cells; test: cytotoxicity call (relative viability < 0.9); details: 10 µM
HepG2 = test: cytotoxicity call (relative viability < 0.9); details: 10 µM
S. aureus RN4220 = test: growth inhibition call (relative growth <= 0.2); details: 50 µM

SMILES | cytotoxicity call (HSkMC) | cytotoxicity call (HepG2) | growth inhibition call (S. aureus RN4220)
C[C@@H]1CCCCO[C@@H](CN(C)C(=O)Nc2cccc3ccccc23)[C@@H](C)CN([C@H](C)CO)C(=O)c2cc(NC(=O)CCC(F)(F)F)ccc2O1 | inactive | inactive | inactive
COc1ccc(S(=O)(=O)N(C)C[C@H]2OCCCC[C@@H](C)Oc3ccc(NC(=O)Nc4ccc5c(c4)OCO5)cc3C(=O)N([C@@H](C)CO)C[C@@H]2C)cc1 | inactive | active | inactive
CN(C)C(=O)N1C[C@@H]2[C@@H](C1)C(=O)N(C)C21CCN(S(C)(=O)=O)CC1 | inactive | inactive | inactive
CN(C)CCCn1ccnc1-c1cnc(N)nc1 | inactive | inactive | inactive
Cc1ccccc1NC(=O)C[C@H]1NCCNC1=O | inactive | inactive | inactive
NC(=O)CCN1C(=O)c2ccccc2C1=O | inactive | inactive | inactive
O=C(C[C@H]1CC[C@@H](NS(=O)(=O)c2ccccc2)[C@@H](CO)O1)NCc1ccncn1 | inactive | inactive | inactive
C[C@@H]1CN([C@@H](C)CO)C(=O)c2cccc(NC(=O)NC3CCCCC3)c2O[C@H]1CN(C)Cc1ccc(Cl)c(Cl)c1 | inactive | inactive | inactive
C[C@H](CO)N1C[C@H](C)[C@@H](CN(C)S(=O)(=O)c2ccccc2)Oc2ncc(C#CCN(C)C)cc2C1=O | inactive | inactive | inactive
C[C@H](CO)N1C[C@H](C)[C@H](CN(C)Cc2ccc(Cl)c(Cl)c2)Oc2c(NS(=O)(=O)c3ccc(F)cc3)cccc2C1=O | inactive | inactive | inactive
C[C@H]1CN([C@@H](C)CO)C(=O)Cc2cc(NC(=O)Cn3cnnn3)ccc2O[C@@H]1CN(C)S(=O)(=O)c1cn(C)cn1 | inactive | inactive | inactive
O=c1c(O)c(-c2ccccc2)oc2ccccc12 | inactive | inactive | inactive
NNC(=O)c1ccc(/C=N\O)nc1 | inactive | inactive | inactive
Cc1ccc(S(=O)(=O)N(C)C[C@H]2OCCCC[C@@H](C)Oc3ccc(NC(=O)c4ccccc4)cc3C(=O)N([C@@H](C)CO)C[C@H]2C)cc1 | inactive | inactive | inactive
CCCCCCOC(=O)N=C(N)c1ccc(NCc2nc3cc(C(=O)N(CCC(=O)OCC)c4ccccn4)ccc3n2C)cc1.CS(=O)(=O)O | inactive | inactive | inactive
COc1cccc2c1C(=O)c1c(O)c3c(c(O)c1C2=O)C[C@@](O)(C(=O)CO)C[C@@H]3O[C@H]1C[C@H](N)[C@H](O)[C@H](C)O1 | active | active | active
Clc1ccc(COC(Cn2ccnc2)c2ccc(Cl)cc2Cl)c(Cl)c1.O=[N+]([O-])O (centres undefined) | inactive | inactive | inactive
Cc1ccc(S(=O)(=O)N[C@@H]2CC[C@H](CC(=O)NCc3ccc(Cl)c(Cl)c3)O[C@@H]2CO)cc1 | inactive | inactive | inactive
OC[C@H]1CN(Cc2ccccc2)CCO1 | inactive | inactive | inactive
C[C@@H]1CCCCO[C@@H](CN(C)S(=O)(=O)c2cn(C)cn2)[C@H](C)CN([C@@H](C)CO)C(=O)c2cc(N(C)C)ccc2O1 | inactive | inactive | inactive
Cc1cc(C)c(NC(=O)[C@@H](N)Cc2ccccc2)c(Cl)c1 | inactive | active | inactive
C=C/C=C/[C@@H]1C(=C)CN([C@@H](Cc2ccccc2)C(=O)OC)[C@H]1[C@@H](O)CCn1cc(CCC(=O)NO)nn1 | inactive | inactive | inactive
CCS(=O)(=O)NCC[C@H]1CC[C@@H](NS(=O)(=O)c2ccccc2C)[C@@H](CO)O1 | inactive | inactive | inactive
C[C@H]1CN([C@@H](C)CO)C(=O)c2cc(NC(=O)CCCCCC(=O)Nc3ccccc3N)ccc2O[C@@H]1CN(C)C(=O)Nc1ccccc1 | inactive | inactive | inactive
CC(=O)N(C)CP(=O)(O)CN1CCCC1=O | inactive | inactive | inactive
C[C@@H]1CN([C@@H](C)CO)C(=O)Cc2cc(NC(=O)C3CCCCC3)ccc2O[C@@H]1CN(C)C(=O)Nc1ccc(C(F)(F)F)cc1 | inactive | inactive | inactive
C[C@@H]1CN([C@H](C)CO)C(=O)c2cc(NC(=O)CCC(F)(F)F)ccc2O[C@@H]1CN(C)Cc1ccc(C(F)(F)F)cc1 | inactive | inactive | inactive
C[C@@H]1CN([C@H](C)CO)C(=O)c2cc(-c3cccc(C#N)c3)cnc2O[C@H]1CN(C)C(=O)C1CCOCC1 | inactive | inactive | inactive
